Reference: US20160038588A1 (Amgen, published 2016)
Where two headings read alike, the source gives them in different places.

How the values were obtained:
[1] = target: T1, recombinant mature myostatin (human, produced in E. coli) (human, UniProt O14793 267-375); experiment: cell-based or functional assay
T1 sequence (looked up): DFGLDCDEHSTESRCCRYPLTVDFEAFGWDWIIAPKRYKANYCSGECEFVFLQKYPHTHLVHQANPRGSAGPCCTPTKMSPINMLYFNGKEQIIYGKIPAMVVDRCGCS

[2] = target: T1, recombinant mature myostatin (human, …); experiment: BIAcore, myostatin immobilized on CM5 chip
[3] = target: T1, recombinant mature myostatin (human, …); experiment: KinExA solution based assay or BIAcore (table does not say which)
[4] = target: T1, recombinant mature myostatin (human, …); experiment: cell-based or functional assay; remark: listed apart in the source

| Binder | Kd [3] | also measured |
| --- | --- | --- |
| Myostatin-2xTN8-19 kc peptibody (Fc fusion) [here human IgG1 Fc without letters]GSGSATGGSGSTASSGSGSATGQGHCTRWPWMCPPYGSGSATGGSGSTASSGSGSATGQGHCTRWPWMCPPY | – | IC50, C2C12 pMARE-luc assay [1]: ~9 nM; Kd [2]: ~2000 pM |
| mTN8-19-32 peptibody (Fc fusion, also called 1x mTN8-19-32) [here human IgG1 Fc without letters]GGGGGAQVADHGHCTRWPWMCPPQGWGLE | 9 pM | – |
| mTN8-19 Con1 peptibody (Fc fusion, also called 1x mTN8-19-con1) [here human IgG1 Fc without letters]GGGGGAQVATQGQCTRWPWMCPPQGWGLE | 20 pM | – |
| mTN8-19-7 peptibody (Fc fusion, also called 1x mTN8-19-7) [here human IgG1 Fc without letters]GGGGGAQLADHGQCIRWPWMCPPEGWELE | 10 pM | IC50, C2C12 pMARE-luc assay [4]: 1.78 nM |
| mTN8-19-21 peptibody (Fc fusion, also called 1x mTN8-19-21) [here human IgG1 Fc without letters]GGGGGAQSEYQGLCTRWPWMCPPQGWKLE | 6 pM | – |
| mTN8-19-22 peptibody (Fc fusion, also called 1x mTN8-19-22) [here human IgG1 Fc without letters]GGGGGAQTFSQGHCTRWPWMCPPQGWGLE | 4 pM | – |
| mTN8-19-33 peptibody (Fc fusion, also called 1x mTN8-19-33) [here human IgG1 Fc without letters]GGGGGAQPESQGHCTRWPWMCPPQGWGLE | 21 pM | – |
| 2X mTN8-19-21 peptibody (Fc fusion) [here human IgG1 Fc without letters]GGGGGAQSEYQGLCTRWPWMCPPQGWKLEGSGSATGGSGSTASSGSGSATGSEYQGLCTRWPWMCPPQGWKLE | 6 pM | – |
| 2X mTN8-19-33 peptibody (Fc fusion) [here human IgG1 Fc without letters]GGGGGAQPESQGHCTRWPWMCPPQGWGLEGSGSATGGSGSTASSGSGSATGPESQGHCTRWPWMCPPQGWGLE | 3 pM | – |
